Data published in PubChem BioAssay AID2675 (National Center for Advancing Translational Sciences (NCATS), 2010).
The campaign covered roughly 280,000 compounds. About 100 (0.036%) were called active. Inconclusive results, whose numbers are uncertain, are shown with a selection of clear calls. The call rests on the fitted dose curve; in most records, active means well fitted inhibition curve with a large enough effect in the signal ratio, with a control signal flat (not every such curve was filed as active); inconclusive means small, poorly fitted or top-dose-only effect, or effect the other way, or a change in a side signal; inactive means no such curve, though single readings can be large or run the other way; the % refers to the signal ratio. A potency beside an inconclusive call is a rough fit, not a confirmed value. “Side channel” marks fits to a control or component signal instead of the main read-out.

molecular target: Muscleblind-like protein 1 (Homo sapiens) (UniProt Q9NR56); experiment: qHTS Assay for Inhibitors of MBNL1-poly(CUG) RNA binding; conditions: TR-FRET MBNL1-His/biotin-(CUG)12 binding, 665/545 ratio; activity change, negative = inhibition: at 57.5 µM (top of the series)
How it was run: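 His-tagged MBNL1 binding to biotinylated (CUG)12 RNA was measured by TR-FRET using terbium anti-His antibody (0.055 ng/ul final) and streptavidin-XL665 (5 nM final). Compounds were titrated 92 nM to 58 uM; 60 min at room temperature.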
On the % scale 0 is the no-effect control and ±100 the full control effect; potency means the concentration at half of the fitted maximal effect; tags describe the fitted curve by direction and shape or compound fluorescence and quenching.

Sequence of UniProt Q9NR56 (Q9NR56 whole entry, looked up): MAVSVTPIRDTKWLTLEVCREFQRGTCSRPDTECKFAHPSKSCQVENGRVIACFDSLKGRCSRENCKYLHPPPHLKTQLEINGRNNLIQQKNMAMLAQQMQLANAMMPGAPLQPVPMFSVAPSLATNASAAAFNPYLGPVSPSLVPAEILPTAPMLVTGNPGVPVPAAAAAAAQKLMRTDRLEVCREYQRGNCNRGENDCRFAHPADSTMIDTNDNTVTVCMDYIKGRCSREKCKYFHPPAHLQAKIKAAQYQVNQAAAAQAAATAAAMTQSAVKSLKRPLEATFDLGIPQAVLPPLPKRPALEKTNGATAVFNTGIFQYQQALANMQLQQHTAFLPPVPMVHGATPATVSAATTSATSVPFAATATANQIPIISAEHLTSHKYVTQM

**Q.** For CC(=O)Nc1ccc(/C=C/c2nc3ccccc3o2)cc1, which Potency is on record?
**A.** The Potency was inconclusive: 3.55 µM [quencher, side channel, full curve].

**Q.** How did the Potency turn out when O=C1OCC(c2ccccc2)=C1c1ccc(S(=O)(=O)N2CCOCC2)s1 was run?
**A.** The Potency was inconclusive: 28.2 µM [quencher, side channel, partial curve].

**Q.** Which Potency does the source give for COc1ccc(C)cc1NC(=O)c1ccccc1NS(=O)(=O)c1cccc2cccnc12 here?
**A.** Its Potency is inconclusive: 0.0891 µM [fluorescent, side channel, full curve, poor fit].

**Q.** With COC(CNC(=O)C1CCCN(S(=O)(=O)c2c(C)noc2/C=C/c2cccs2)C1)OC (centres undefined) as the compound, how does the Potency read?
**A.** The Potency was inconclusive: 20 µM [quencher, side channel, partial curve].

**Q.** Which Potency does the source give for COc1ccc(-c2ccc(NS(=O)(=O)c3cc([N+](=O)[O-])ccc3C)cc2)nn1 here?
**A.** Its Potency is inconclusive: 28.2 µM [quencher, side channel, partial curve].

**Q.** Which Potency does the source give for COc1cc([N+](=O)[O-])ccc1NC(=O)NNC(=O)C(C)Oc1ccc(F)cc1F (centres undefined) here?
**A.** Its Potency is inconclusive: 12.6 µM [quencher, side channel, partial curve].

**Q.** How did the “activity change, negative = inhibition” value turn out when C/C(=N\NC(=O)c1cc2ccccc2cc1O)c1cccs1 was run?
**A.** Its value is inactive: -1.59%.

**Q.** COc1ccc(OCCCC(=O)Nc2cccc([N+](=O)[O-])c2)cc1 was tested. Which Potency did it give?
**A.** The Potency was inconclusive: 31.6 µM [quencher, side channel, single point].

**Q.** Which Potency does the source give for O=C(N=C1c2ccccc2CN1c1ccccc1)c1cccc([N+](=O)[O-])c1 here?
**A.** The Potency was inconclusive: 28.2 µM [quencher, side channel, partial curve].

**Q.** Which Potency does the source give for CC(=O)c1cc(NC(=O)c2ccccc2)c(=O)oc1/C=C/N(C)C here?
**A.** Its Potency is inconclusive: 15.8 µM [quencher, side channel, partial curve].

**Q.** How did the Potency turn out when CN1CCN(c2ccc(NC(=O)c3ccc(-c4ccc(Cl)cc4)o3)cc2)CC1 was run?
**A.** The Potency was inconclusive: 12.6 µM [quencher, side channel, partial curve].

**Q.** Which Potency does the source give for COc1ccc(NC(=O)c2cc(-c3cc(OC)c(OC)c(OC)c3)nc3ccccc23)cc1OC here?
**A.** Its Potency is inconclusive: 15.8 µM [quencher, side channel, partial curve].

**Q.** With COc1ccc(C(=O)N2c3ccccc3CC2C)cc1OC (centres undefined) as the compound, how does the “activity change, negative = inhibition” value read?
**A.** Its value is inactive: 3.17%.

**Q.** CCOC(=O)c1sc(NC(=O)c2c(C)nn(Cc3ccccc3)c2C)cc1C was tested. Which Potency did it give?
**A.** Its Potency is inconclusive: 3.16 µM [quencher, side channel, full curve].

**Q.** How did the “activity change, negative = inhibition” value turn out when CCSC1=N/C(=C\c2ccc3c(c2)OCO3)C(=O)S1 was run?
**A.** Its value is inactive: 6.36%.

**Q.** CC(=O)N(CCC(Cc1ccccc1)c1ccc2c(c1)OCO2)Cc1ccc(Cl)cc1 (centres undefined) was tested. Which Potency did it give?
**A.** Its Potency is inconclusive: 39.8 µM [quencher, side channel, single point].

**Q.** For Cc1ccc2oc(=O)c(/C=C(\O)c3sc(C)nc3C)nc2c1, which Potency is on record?
**A.** The Potency was inconclusive: 0.1 µM [fluorescent, side channel, full curve].

**Q.** How did the Potency turn out when Cc1cccc(OCc2nnc(SCc3cc(=O)n4cc(Br)ccc4n3)o2)c1 was run?
**A.** Its Potency is inconclusive: 28.2 µM [quencher, single point].

**Q.** Cc1onc(-c2ccccc2)c1C(=O)NC(=S)NNC(=O)c1ccc(O)cc1O was tested. Which “activity change, negative = inhibition” value did it give?
**A.** Its value is inactive: -6.31%.

**Q.** Which Potency does the source give for C#CCOCCOCCOCCNc1nc(N2CCN(C(=O)[C@H]([C@@H](C)CC)n3cc([C@@H](N)CO)nn3)CC2)nc(N2CCN(C(=O)[C@H](Cc3ccc(O)cc3)n3cc([C@@H](N)CC(C)C)nn3)CC2)n1 here?
**A.** Its Potency is inconclusive: 79.4 µM [inhibitor, single point].

**Q.** How did the “activity change, negative = inhibition” value turn out when S=c1[nH]nc(C2CCCCC2)n1/N=C/c1ccncc1 was run?
**A.** The value was inactive: -7.82%.

**Q.** Which “activity change, negative = inhibition” value does the source give for Cc1ccc(CC(=O)Nc2nc3c(s2)CCCC3)cc1 here?
**A.** Its value is inactive: -2.56%.

**Q.** How did the Potency turn out when CCOC(=O)CNC(=O)CSc1nc2cccnc2n1CC was run?
**A.** The Potency was inconclusive: 79.4 µM [inhibitor, single point].

**Q.** With CN1C(=O)/C(=C/c2ccco2)SC1=Nc1ccc(N2CCOCC2)cc1 as the compound, how does the Potency read?
**A.** The Potency was inconclusive: 0.1 µM [quencher, side channel, full curve, poor fit].

**Q.** Cc1oc(-c2ccccc2F)nc1CN1CCC(C(=O)NCCC2=CCCCC2)CC1 was tested. Which “activity change, negative = inhibition” value did it give?
**A.** The value was inactive: 0.485%.

**Q.** How did the “activity change, negative = inhibition” value turn out when COc1ccc(OCC(=O)Nc2nc3c(s2)CCCC3)cc1 was run?
**A.** The value was inactive: -8.7%.

**Q.** CS(=O)(=O)NCCNc1ccc(Cl)cc1[N+](=O)[O-] was tested. Which Potency did it give?
**A.** Its Potency is inconclusive: 12.6 µM [quencher, side channel, partial curve].

**Q.** Which Potency does the source give for O=C(O)c1ccc(C(=O)c2ccc3c(c2)C(=O)N(CCO)C3=O)cc1 here?
**A.** Its Potency is inconclusive: 12.6 µM [quencher, side channel, partial curve].

**Q.** How did the “activity change, negative = inhibition” value turn out when Cc1cc(C(=O)COC(=O)c2ccc[nH]c2=O)c(C)n1-c1ccccc1F was run?
**A.** The value was inactive: 0.812%.

**Q.** For CC(=C/c1ccccc1)/C=N/n1c(-c2ccco2)n[nH]c1=S, which Potency is on record?
**A.** Its Potency is inconclusive: 39.8 µM [quencher, single point].

**Q.** How did the “activity change, negative = inhibition” value turn out when COC(=O)c1cc(NC(=O)c2ccc(OC)cc2)c(=O)oc1C was run?
**A.** The value was inactive: 5.16%.

**Q.** Which Potency does the source give for Nc1c(SCCC(=O)O)ccc2c1C(=O)c1ccccc1C2=O here?
**A.** The Potency was inconclusive: 14.1 µM [quencher, side channel, partial curve].

**Q.** For CC1(C)CN2C(=S)N(c3ccccc3)C(c3ccccc3)N2C1 (centres undefined), which Potency is on record?
**A.** The Potency was inconclusive: 5.01 µM [quencher, side channel, single point].

**Q.** For CC(C)Nc1ccc(-n2nc3ccccc3[n+]2[O-])cc1, which Potency is on record?
**A.** Its Potency is inconclusive: 12.6 µM [quencher, side channel, partial curve].

**Q.** How did the Potency turn out when O=C(Nc1ccc2nsnc2c1)N1CCCCCC1 was run?
**A.** Its Potency is inconclusive: 15.8 µM [quencher, partial curve].

**Q.** With COC(=O)C(C(=O)OC)C(C(C)C)C(C(=O)OC)C(=O)OC as the compound, how does the Potency read?
**A.** Its Potency is inconclusive: 10 µM [quencher, side channel, single point].

**Q.** C(=N\Nc1ccccn1)/c1cccnc1 was tested. Which Potency did it give?
**A.** Its Potency is inconclusive: 25.1 µM [quencher, side channel, partial curve].

**Q.** How did the Potency turn out when C=CCn1c[n+](CC(=O)c2ccc(Br)s2)c2ccccc21 was run?
**A.** Its Potency is inconclusive: 17.8 µM [quencher, side channel, partial curve].

**Q.** N#CCSc1nccc(/C=C/c2ccccc2)n1 was tested. Which Potency did it give?
**A.** The Potency was inconclusive: 22.4 µM [quencher, side channel, partial curve].

**Q.** With Cc1cccc2cc(CN(Cc3nnnn3Cc3ccco3)C3CCCC3)c3nnnn3c12 as the compound, how does the “activity change, negative = inhibition” value read?
**A.** The value was inactive: 14.2%.

**Q.** With O=C(CNCCO)N1N=C(c2cccs2)CC1c1cccs1 (centres undefined) as the compound, how does the Potency read?
**A.** Its Potency is inconclusive: 25.1 µM [quencher, side channel, single point].

**Q.** How did the Potency turn out when CCc1ccc2c(c1)c1nnc(NN)nc1n2CC was run?
**A.** Its Potency is inconclusive: 4.47 µM [quencher, side channel, partial curve].

**Q.** With Cc1cc(C(=O)N/N=C/c2ccc([N+](=O)[O-])s2)c2ccccc2n1 as the compound, how does the Potency read?
**A.** Its Potency is inconclusive: 8.91 µM [quencher, side channel, partial curve].

**Q.** With COc1ccc(N=C/C=C2/C=C(c3ccccc3)OC(C)(C)O2)cc1 as the compound, how does the Potency read?
**A.** Its Potency is inconclusive: 22.4 µM [quencher, side channel, single point].

**Q.** COc1cccc(C(=O)Nc2cccc(OCC(=O)c3ccccc3)c2)c1 was tested. Which Potency did it give?
**A.** The Potency was inconclusive: 0.708 µM [fluorescent, side channel, single point].

**Q.** Which Potency does the source give for O=C(NCCN1CCOCC1)c1cc(Cl)ccc1[N+](=O)[O-] here?
**A.** The Potency was inconclusive: 20 µM [quencher, side channel, single point].

**Q.** For C[C@@H](O)C1NC(=O)[C@H](CCCCN)NC(=O)c2cc([N+](=O)[O-])cc(I)c2NCCC[C@@H](C(N)=O)NC1=O (some centres undefined), which Potency is on record?
**A.** The Potency was inconclusive: 17.8 µM [quencher, side channel, partial curve].

**Q.** How did the “activity change, negative = inhibition” value turn out when COc1cccc(C(=S)N2CCCC2)c1OC was run?
**A.** Its value is inactive: 3.38%.

**Q.** With CCOc1ccc(CN2CCN(C(=O)c3cccc(F)c3)CC2)cc1 as the compound, how does the Potency read?
**A.** Its Potency is inconclusive: 0.794 µM [quencher, side channel, single point].

**Q.** How did the Potency turn out when COc1ccc(CCC(=O)N2CCN(c3ccc([N+](=O)[O-])cc3)CC2)cc1OC was run?
**A.** The Potency was inconclusive: 15.8 µM [quencher, side channel, partial curve].

**Q.** Which Potency does the source give for Cc1nc(C(=O)NC2CC2)sc1C1(C)CC(c2cccc([N+](=O)[O-])c2)=NO1 (centres undefined) here?
**A.** Its Potency is inconclusive: 31.6 µM [quencher, side channel, partial curve].

**Q.** O=C(CCNS(=O)(=O)c1cccc2nonc12)N1CCN(c2cccc(Cl)c2)CC1 was tested. Which Potency did it give?
**A.** The Potency was inconclusive: 17.8 µM [quencher, side channel, partial curve].

**Q.** CCOC(=O)c1cnn2c(C(F)(F)F)cc(-c3ccco3)nc12 was tested. Which Potency did it give?
**A.** The Potency was inconclusive: 20 µM [quencher, side channel, partial curve].

**Q.** Which Potency does the source give for COc1cc([N+](=O)[O-])cc(/C=N/NC(=O)C(C)Nc2cccc3ccccc23)c1O (centres undefined) here?
**A.** The Potency was inconclusive: 28.2 µM [quencher, side channel, single point].

**Q.** O=C(CN1CCN(c2ccccn2)CC1)Nc1ccc([N+](=O)[O-])cc1C(=O)Nc1ccccc1F was tested. Which Potency did it give?
**A.** Its Potency is inconclusive: 22.4 µM [quencher, side channel, partial curve].

**Q.** With COc1ccc(S(=O)(=O)NCc2cccnc2)cc1Br as the compound, how does the “activity change, negative = inhibition” value read?
**A.** The value was inactive: -7.65%.

**Q.** With COc1cccc(NS(=O)(=O)c2ccc3[nH]cc(C(=O)NCCCOC(C)C)c(=O)c3c2)c1 as the compound, how does the Potency read?
**A.** The Potency was inconclusive: 35.5 µM [quencher, single point].

**Q.** With Nc1nc(Sc2ncccc2[N+](=O)[O-])n[nH]1 as the compound, how does the Potency read?
**A.** Its Potency is inconclusive: 10 µM [quencher, side channel, partial curve].

**Q.** How did the Potency turn out when CCN(CC)CCNC(=O)c1cc(S(C)(=O)=O)ccc1OC was run?
**A.** Its Potency is inconclusive: 63.1 µM [inhibitor, single point].
